Measurements reported in ChEMBL document CHEMBL1132690, “Design, synthesis, and biological evaluation of potent thiazine- and thiazepine-based matrix metalloproteinase inhibitors” (J Med Chem, 1999).

What was measured:
[1] = molecular target: Stromelysin-1 (Homo sapiens, UniProt P08254)
[2] = molecular target: T1, Interstitial collagenase (Homo sapiens, UniProt P03956)
T1 sequence (P03956 whole entry): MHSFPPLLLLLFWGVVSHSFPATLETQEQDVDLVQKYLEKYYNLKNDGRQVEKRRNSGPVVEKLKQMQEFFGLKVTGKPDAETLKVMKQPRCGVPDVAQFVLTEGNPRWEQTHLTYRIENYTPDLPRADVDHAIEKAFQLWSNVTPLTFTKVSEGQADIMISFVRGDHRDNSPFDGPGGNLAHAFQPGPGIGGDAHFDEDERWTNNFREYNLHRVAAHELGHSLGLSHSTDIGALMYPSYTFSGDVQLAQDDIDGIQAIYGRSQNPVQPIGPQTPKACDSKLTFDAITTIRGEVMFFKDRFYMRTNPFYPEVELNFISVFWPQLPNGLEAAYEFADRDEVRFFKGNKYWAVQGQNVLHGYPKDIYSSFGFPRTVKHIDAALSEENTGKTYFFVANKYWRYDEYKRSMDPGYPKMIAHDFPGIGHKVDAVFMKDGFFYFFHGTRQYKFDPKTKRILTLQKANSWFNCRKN

Chain of Stromelysin-1 (P08254 whole entry): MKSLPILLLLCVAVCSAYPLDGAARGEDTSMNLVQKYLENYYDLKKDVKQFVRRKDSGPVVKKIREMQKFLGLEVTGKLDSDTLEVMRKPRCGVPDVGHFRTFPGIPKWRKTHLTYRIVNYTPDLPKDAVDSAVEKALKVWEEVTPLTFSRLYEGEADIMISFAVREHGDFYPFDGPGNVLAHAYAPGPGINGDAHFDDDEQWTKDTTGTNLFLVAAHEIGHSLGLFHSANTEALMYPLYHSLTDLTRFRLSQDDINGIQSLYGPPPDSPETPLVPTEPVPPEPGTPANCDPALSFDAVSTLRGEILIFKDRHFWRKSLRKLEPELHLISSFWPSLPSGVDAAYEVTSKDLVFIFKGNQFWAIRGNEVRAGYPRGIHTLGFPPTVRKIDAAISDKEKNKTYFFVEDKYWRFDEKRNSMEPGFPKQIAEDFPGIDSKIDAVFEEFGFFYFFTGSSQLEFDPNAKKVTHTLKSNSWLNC

| SMILES | IC50 [1] [nM] | IC50 [2] [nM] |
| --- | --- | --- |
| COc1ccc(S(=O)(=O)N2CCOCCSC(C)(C)[C@@H]2C(=O)NO)cc1 | 0.7 |  |
| COc1ccc(S(=O)(=O)N2CCCCCSC(C)(C)[C@@H]2C(=O)NO)cc1 | 7.2 |  |
| COc1ccc(S(=O)(=O)N2CCS(=O)(=O)CC2C(=O)NO)cc1 (centres undefined) | 737 |  |
| CC1(C)SCCCN(S(=O)(=O)c2ccc(-c3ccccn3)s2)[C@H]1C(=O)NO | 1.1 |  |
| COc1ccc(S(=O)(=O)N2CCS(=O)(=O)C(C)(C)[C@@H]2C(=O)NO)cc1 | 18.5 |  |
| CC1(C)SCCCN(S(=O)(=O)c2ccc(-c3ccc(F)cc3)cc2)[C@H]1C(=O)NO | 6.5 |  |
| COc1ccc(S(=O)(=O)N2CCCCCC2C(=O)NO)cc1 (centres undefined) | 7 |  |
| COc1ccc(S(=O)(=O)N2CCCC2C(=O)NO)cc1 (centres undefined) | 258 |  |
| COCOC1CSC(C)(C)[C@H](C(=O)NO)N(S(=O)(=O)c2ccc(OC)cc2)C1 (some centres undefined) | 1 | 1 |
| CC1(C)SCCCN(S(=O)(=O)c2ccc(Oc3ccncc3)cc2)[C@H]1C(=O)NO | 6.3 |  |
| COc1ccc(S(=O)(=O)N2CCOCCS(=O)(=O)C(C)(C)[C@@H]2C(=O)NO)cc1 | 45 |  |
| COc1ccc(S(=O)(=O)N2[C@@H](c3ccccc3)CCSC(C)(C)[C@@H]2C(=O)NO)cc1 | 33 |  |
| COc1ccc(S(=O)(=O)N2CCCCC(C)(C)[C@@H]2C(=O)NO)cc1 | 3.3 |  |
| COc1ccc(S(=O)(=O)N2CSCC2C(=O)NO)cc1 (centres undefined) | 175 |  |
| COc1ccc(S(=O)(=O)N2CCCSC[C@@]2(C)C(=O)NO)cc1 | 31 |  |
| COc1ccc(S(=O)(=O)N2C[C@@H](O)CS(=O)(=O)C(C)(C)[C@@H]2C(=O)NO)cc1 | 7.3 |  |
| COc1ccc(S(=O)(=O)N2CCOCC2C(=O)NO)cc1 (centres undefined) | 5.8 |  |
| COc1ccc(S(=O)(=O)N2[C@@H](C(=O)NO)C(C)(C)SCC[C@H]2c2ccccc2)cc1 | 26 |  |
